PubChem BioAssay AID1347120 (National Center for Advancing Translational Sciences (NCATS), 2019)
About 930 (0.24%) of roughly 390,000 compounds were called active. The inconclusive results got no clear call from the source; some entries with a clear call stand among them for comparison. Calls come from the whole dose curve; as a rule, active = well fitted activation curve with a large enough effect; inconclusive = small, poorly fitted or top-dose-only effect; inactive = no such curve, though single readings can be large or run the other way. Potencies of inconclusive entries are doubtful fits and often do not repeat.

Assay: qHTS for Suppressors of FUS Proteinopathy: Primary screen using FUS-linked yeast assay; note: nearly all actives have a fitted effect of over 55% in size;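 for growth rescue (activation): plate controls were DMSO vehicle for no effect and reference control for full effect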
Settings: S. cerevisiae FUS-expressing, OD600, 24 h; Potency: growth rescue; growth rescue (activation): at 76.6 µM (top of the series)
Procedure, shortened: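 Galactose (2%) drives FUS expression in yeast precultured in raffinose; seeding density OD 0.005. Test compounds incubated 24hr at 30C and 99% humidity before absorbance at 600 nm was measured.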
Potency is the fitted concentration of half-maximal effect; tags give direction and shape of the fitted curve.

Structure (SMILES)	Potency	growth rescue (activation)
Cc1cccc(C(=O)NN2C(=O)C3C(c4ccccc4)C=CC(c4ccccc4)C3C2=O)c1 (stereo not drawn)	inconclusive: 50.1 µM [activator, partial curve, poor fit]	
COc1ccc(Cl)cc1C(=O)NC(=S)Nc1cc(-c2nc3ccccc3[nH]2)ccc1C	inconclusive: 28.2 µM [activator, single point]	
CCCCCCCCN1C(=O)[C@H](CC(=O)N2CCCCC2)C[C@@]2(C(=O)OC)CCCCC=C12	inconclusive: 50.1 µM [activator, single point]	
CNC(=O)CSc1ncnc2c1cnn2-c1ccccc1	inactive	
CC(NC(=O)c1cc([N+](=O)[O-])cc([N+](=O)[O-])c1)C1CC2CCC1C2 (stereo not drawn)	inconclusive: 25.1 µM [activator, partial curve, poor fit]	
COc1cc(NC(=O)CSC2=Nc3ccccc3N=C(c3ccc(F)cc3)C2)cc(OC)c1	inactive	
CCCC/C(O)=C/c1nc2ccccc2[nH]c1=O	inactive	
O=c1c(-c2ccccc2)nc2ccccc2n1C(c1ccccc1)c1nc2ccccc2[nH]1 (stereo not drawn)	inconclusive: 11.2 µM [activator, partial curve, poor fit]	
CCc1nc2c(OCC(=O)c3ccc(Cl)cc3Cl)cccn2c1N(C=O)Cc1ccc(OC)cc1	inconclusive: 31.6 µM [activator, single point]	
CCOC(=O)c1ccc(NC(=O)CC2C(=O)N(c3cccc(OC)c3)C(=O)N2Cc2ccc(OC)cc2)cc1 (stereo not drawn)	inconclusive: 39.8 µM [activator, partial curve, poor fit]	
O=C(OCC(=O)N1CCN(C(=O)c2ccco2)CC1)c1cc(-c2cccc(Br)c2)nc2ccccc12	inconclusive: 11.2 µM [activator, partial curve, poor fit]	
CCC(Oc1ccc(F)cc1)C(=O)Nc1nc(-c2ccc(F)cc2)ns1 (stereo not drawn)	inactive	
C=CC[C@@H](CC(=O)N[C@H](CO)Cc1ccccc1)C(=O)N[C@@H](COC(=O)[C@@H](CC=C)Cc1ccc(F)cc1)Cc1c[nH]c2ccccc12	inconclusive: 28.2 µM [activator, partial curve, poor fit]	
O=C(Oc1cccc2ccccc12)c1ccco1	inactive	
COc1ccc(Cl)cc1NC(=O)CSC1=Nc2ccccc2C2=NC(CC(=O)NCc3ccc4c(c3)OCO4)C(=O)N12 (stereo not drawn)	inconclusive: 28.2 µM [activator, single point]	
CC[n+]1ccc(C[n+]2ccccc2)c2ccccc21	inactive	
COc1ccccc1N(C)S(=O)(=O)c1ccc(C(=O)OCC(=O)Nc2ccccc2F)cc1	inconclusive: 7.94 µM [activator, partial curve, poor fit]	
CN(Cc1ccccc1C#N)S(=O)(=O)c1cccs1	inactive	
O=C(N/N=C/c1ccc(Br)cc1)c1ccc(F)cc1	inactive	
CCOC(=O)c1[nH]c2cc3c(cc2c1NC(=O)CN1CCC2(CC1)OCCO2)OCO3	inactive	
CCOC(=O)c1c(NC(=O)CSc2nnc(C)s2)sc2c1CCC(C)C2 (stereo not drawn)	inconclusive: 17.8 µM [activator, single point]	
CN1C(=O)C2(c3ccccc31)N(c1cccc(F)c1)C(=O)CS2(=O)=O (stereo not drawn)	inconclusive: 44.7 µM [activator, single point]	
CC(=O)Nc1ccc(S(=O)(=O)N2CCCc3ccccc32)cc1	inactive	

Structure (SMILES)	Potency	growth rescue (activation)
COc1ccc(-c2sc(Nc3ccccc3)n[n+]2-c2ccc(F)cc2)cc1Br	inconclusive: 39.8 µM [activator, single point]	
O=C(NCc1ccc2c(c1)OCO2)c1cccc(Cl)c1	inconclusive: 11.2 µM [activator, single point]	
COc1ccc(C(=O)C(C)OC(=O)C2CC3CCCC(C2)C3=O)cc1 (stereo not drawn)	inactive	
COc1ccccc1NC(=S)OC1CCC12CCC(c1ccccc1)CC2 (stereo not drawn)	inactive	
O=C1NC(Cc2ccc(O)cc2)c2nc3ccc(Cl)cc3c(=O)n2-c2cc3ccccc3cc21 (stereo not drawn)	inconclusive: 25.1 µM [activator, single point]	
COc1ccc2c(c1)oc(=O)c1ccccc12	inactive	
CCOCCn1ccc2c(OCC(=O)Nc3ccc(OC(F)(F)F)cc3)cccc2c1=O	inactive	
COc1ccc(/C=C/C(=O)Nc2nc3n(n2)C(c2ccccc2)C=C(c2ccccc2)N3)cc1 (stereo not drawn)	inconclusive: 17.8 µM [activator, partial curve]	
Cc1ccc(CCNC(=O)C2CCN(c3nnc(-n4cccc4CNc4ccc(C)cc4)s3)CC2)cc1	inconclusive: 20 µM [activator, partial curve, poor fit]	
C(=N\Nc1nc(-c2ccccc2)cs1)/c1cccs1		inconclusive: 84.4% [activator]
CCOc1ccc(N2C(=O)c3ccc(C(=O)OCC(=O)N(CC)C4CCS(=O)(=O)C4)cc3C2=O)cc1 (stereo not drawn)	inconclusive: 20 µM [activator, partial curve, poor fit]	
O=S(=O)(c1ccccc1)N1CCN(c2ncccn2)CC1	inactive	
Cc1ccc(-n2ncc(C(=O)Nc3ccc4c(c3)OCO4)c2C2CCN(C(=O)OC(C)(C)C)CC2)cc1	active: 28.2 µM	
O=C(COc1ccc2c(c1)CCC2)Nc1ccccn1	inactive	
COc1cccc2cc(C(=O)NCCc3c(C)[nH]c4ccc(Br)cc34)c(=O)oc12	inactive	
O=C(NC(=S)Nc1ccc(Br)cc1)C1CCC1	inactive	
COc1cc(C2C3C(=O)N(Cc4ccccc4)C(=O)C3ON2c2ccccc2)cc(OC)c1OC (stereo not drawn)	inconclusive: 44.7 µM [activator, partial curve, poor fit]	
O=C(Nc1ccccc1)C1=C[C@H](c2csc3ccccc23)C[C@H](OCc2ccc(CO)cc2)O1	active: 11.2 µM	
CCOc1ccc(-c2nnc(SCC(=O)NCc3ccccc3)nc2-c2ccc(OCC)c(OC)c2)cc1OC	inconclusive: 50.1 µM [activator, single point]	
Oc1ccc(Cl)cc1N=Nc1ccccc1	inactive	
O=C(COc1ccccc1)NS(=O)(=O)c1ccc(Cl)cc1	inactive	
CC(C)c1ccc(CNC(=O)C2CCCN2S(=O)(=O)c2ccccc2)cc1 (stereo not drawn)	inactive	
COc1cccc(NC(=O)N2CCc3nc(Nc4ccc(C(C)C)cc4)ncc3C2)c1	inactive	

Structure (SMILES)	Potency	growth rescue (activation)
COc1ccc(NS(=O)(=O)c2cccc(C(=O)NNC(=O)c3cccn3C)c2)cc1	inconclusive: 8.91 µM [activator, full curve, poor fit]	
CCCCN(C(=O)CSCc1c(C)noc1C)c1c(N)n(CCC)c(=O)[nH]c1=O	inactive	
Oc1ccccc1N=N/C(=N/Nc1ccccc1O)c1ccccc1	inactive	
CCCCCCCCN1C(=O)[C@H](CC(=O)N2CCN(C(=O)OCC)CC2)C[C@@]2(C(=O)OC)CC(C)(C)CC=C12	inconclusive: 5.62 µM [activator, full curve, poor fit]	
O=C(C(=O)N1CCN(c2ccccc2Cl)CC1)c1c[nH]c2ccccc12	inactive	
C#CCNC(=O)C[C@H]1C[C@@]2(C(=O)OC)C(=C[C@H](C(C)(C)C)O[C@@H]2C)N(Cc2ccc(Cl)cc2Cl)C1=O	active: 17.8 µM	
COc1ccc(C(=O)Nc2nnc(S(=O)(=O)N(C)c3ccc(Cl)cc3)s2)cc1OC	inactive	
CC(=O)COc1nc2c(c(-c3ccco3)c1C#N)CCc1ccccc1-2	inactive	
CCOc1ccc(NCc2cccn2-c2nnc(N3CCC(C(=O)NCCc4ccc(OC)c(OC)c4)CC3)s2)cc1	active: 25.1 µM	
COc1cc(Cl)c(C)cc1NC(=O)c1ccccc1NC(=O)CN1CCN(c2ccccn2)CC1	inconclusive: 3.16 µM [activator, full curve, poor fit]	
CCOC(=O)C1=C(N)Oc2cc(C)oc(=O)c2C1c1cccnc1 (stereo not drawn)	inconclusive: 11.2 µM [activator, single point]	
COc1ccc(S(=O)(=O)c2cnc3ccc(OC)cc3c2N2CCC3(CC2)OCCO3)cc1	inconclusive: 25.1 µM [activator, partial curve]	
C#Cc1ccc(NC(=O)C2(C)CCN2C(=O)CC(c2ccccc2)c2ccccc2)cc1 (stereo not drawn)	inconclusive: 25.1 µM [activator, partial curve, poor fit]	
O=C(c1ccc(C(F)(F)F)cc1)N1CCC(=O)N([C@H](COCc2ccc(Cl)cc2)Cc2ccccc2)CC1	inconclusive: 8.91 µM [activator, partial curve]	
CCc1ccc(Nc2n[n+](-c3ccccc3)c(-c3ccc(OCc4ccccc4)cc3)s2)cc1	inconclusive: 39.8 µM [activator, single point]	
COc1ccc(NS(=O)(=O)c2cc(NC(=O)COc3ccccc3F)ccc2OC)cc1	inconclusive: 50.1 µM [activator, single point]	
O=NNc1nc2ccccc2n1Cc1ccccc1	inactive	
CC(C)CCNC(=O)Nc1ccc2c(c1)N(C)C(=O)c1ccccc1S2	inconclusive: 28.2 µM [activator, single point]	
COc1ccc(C(=O)NCCn2cc(SCC(=O)NCCc3ccc(OC)c(OC)c3)c3ccccc32)cc1	inconclusive: 31.6 µM [activator, single point]	
O=C(Nc1nc(-c2cc3ccccc3o2)cs1)c1ccc(S(=O)(=O)N2CCCC2)cc1	inactive	
O=C(Nc1ccc(NC(=O)N2CCN(c3ccccc3O)CC2)cc1)N1CCN(c2ccccc2O)CC1	inconclusive: 11.2 µM [activator, partial curve, poor fit]	
Cn1c(SCC(=O)Nc2ccc(S(=O)(=O)Nc3nccs3)cc2)nc2sc3c(c2c1=O)CCCC3	inconclusive: 22.4 µM [activator, partial curve, poor fit]	
